This note sets out measurements from the supplement of paper PMC9446081.

Screen size: about 39,000 compounds; about 220 (0.56%) showed activity. The list shows a part of the results.
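Also: static incubation at 37 °C against the wild-type strain, values averaged over two biological replicates.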

The test concerns Escherichia coli K-12 BW25113. Briefly: relative growth (OD600 normalised to plate interquartile mean) (fraction); higher = less growth inhibition, active = 0.2 or less. The conditions noted are these: 50 µM; LB; incubation time: overnight (16-24 h).
As to `C[C@@H]1CCCCO[C@H](CN(C)Cc2ccc(C(=O)O)cc2)[C@H](C)CN([C@@H](C)CO)C(=O)c2cc(NS(=O)(=O)c3ccc(F)cc3)ccc2O1`, the relative growth is inactive: 0.962.

In the case of `C[C@H]1CCCCO[C@H](CN(C)S(=O)(=O)c2ccc(F)cc2)[C@@H](C)CN([C@@H](C)CO)C(=O)c2cc(NC(=O)Nc3ccc(C(F)(F)F)cc3)ccc2O1`, the relative growth was inactive: 1.01.

Consider `C[C@@H]1O[C@H](O[C@@H]2[C@H](O)C[C@@]3(C)[C@@H](CC[C@]4(C)[C@H]3CC=C3[C@H]5CC(C)(C)CC[C@@]5(C(=O)O[C@H]5O[C@@H](C)[C@@H](O)[C@H](O[C@H]6OC[C@@H](O)[C@@H](O)[C@@H]6O)[C@H]5O[C@@H]5O[C@H](C)[C@H](O)[C@H](O[C@@H]6OC[C@H](O)[C@H](O[C@@H]7O[C@H](C)[C@@H](O)[C@H](O)[C@@H]7O)[C@H]6O)[C@H]5O)[C@@H](O)C[C@@]34C)[C@]2(C)CO)[C@@H](O)[C@H](O[C@H]2OC[C@@H](O)[C@@H](O[C@H]3OC[C@@H](O[C@H]4OC[C@@](O)(CO)[C@@H]4O)[C@@H](O)[C@@H]3O)[C@@H]2O)[C@@H]1O`, for which the relative growth is inactive: 0.985.

Regarding `COCC(=O)N1CC[C@]2(CC1)CN([C@@H](CO)c1c2c2ccc(cc2n1C)OC)C(=O)CN1CCOCC1`, the relative growth is inactive: 1.02.

For `C=CCOC(=O)[C@@H]1[C@H]2C(=O)O[C@H](c3ccccc3)[C@H](c3ccccc3)N2[C@H](c2ccc(OCCOC(=O)[C@H]3C[C@H]4C(=O)N[C@@H](CC(C)C)C(=O)N4[C@H]3c3cccc(OCCO)c3)cc2)[C@@]12C(=O)Nc1ccc(I)cc12`, the relative growth is inactive: 1.06.

For the molecule `C[C@@H]1CCCCO[C@@H](CN(C)C(=O)Nc2ccc3c(c2)OCO3)[C@H](C)CN([C@H](C)CO)C(=O)c2cc(NC(=O)NC3CCCCC3)ccc2O1`, the relative growth was inactive: 0.999.

Consider `C[C@@H]1CN([C@@H](C)CO)C(=O)c2cc(NC(=O)CCCN(C)C)ccc2O[C@@H]1CN(C)C(=O)NC1CCCCC1`, for which the relative growth is inactive: 0.993.

With `C=CC[C@@H](CC(=O)N[C@@H](CO)Cc1ccccc1)C(=O)NC[C@H](OC(=O)[C@@H](CC=C)Cc1ccc(F)cc1)c1ccccc1`, the relative growth was inactive: 1.

As to `C[C@@H]1CN([C@@H](C)CO)C(=O)c2cc(NS(=O)(=O)c3ccccc3)ccc2O[C@@H]1CN(C)Cc1ccc(Cl)c(Cl)c1`, the relative growth was inactive: 0.972.

With `CN(C)CCCNC(=O)C[C@H]1CC[C@H](NS(=O)(=O)c2ccccc2)[C@H](CO)O1`, the relative growth is inactive: 1.03.

Consider `Nc1nnc(SCC(=O)NC[C@H]2CCCO2)[nH]1`, for which the relative growth was inactive: 0.988.

With `C[C@@H]1CN([C@H](C)CO)C(=O)c2cc(C#CC3CCCC3)cnc2O[C@H]1CN(C)C(=O)Cc1ccccn1`, the relative growth is inactive: 1.01.

As to `CCC(=O)N1C[C@]2(C1)CN([C@H](CO)c1[nH]c3cc(ccc3c12)OC)S(=O)(=O)C`, the relative growth was inactive: 0.992.

For `C[C@@H]1CN([C@H](C)CO)S(=O)(=O)c2ccc(C#Cc3ccccc3F)cc2O[C@@H]1CN(C)CC1CC1`, the relative growth is inactive: 0.999.

In the case of `COc1cccc(NC(=O)N[C@H]2C=C[C@@H](CC(=O)N3CCN(C)CC3)O[C@H]2CO)c1`, the relative growth was inactive: 1.

Turning to `C[C@@H]1CN([C@@H](C)CO)C(=O)c2cc(-c3ccc(C(=O)N(C)C)cc3)cnc2O[C@H]1CN(C)C(=O)C1CC1`, the relative growth was inactive: 1.01.

As for `COc1ccc(NC(=O)Nc2cccc3c2O[C@@H](CN(C)Cc2ccc(-c4ccccc4)cc2)[C@@H](C)CN([C@@H](C)CO)C3=O)cc1`, the relative growth is inactive: 0.992.

Turning to `C[C@H](CO)N1C[C@H](C)[C@@H](CN(C)Cc2ccc(F)cc2)Oc2ncc(C#Cc3cccnc3)cc2C1=O`, the relative growth was inactive: 0.969.

Turning to `COc1ccccc1CNC(=O)C[C@@H]1C[C@@H]2c3cc(NC(=O)Cc4ccncc4)ccc3O[C@@H]2[C@H](CO)O1`, the relative growth is inactive: 0.986.

Take `C[C@H]1CN([C@@H](C)CO)C(=O)Cc2cc(NC(=O)C3CCCCC3)ccc2O[C@@H]1CN(C)Cc1ccc(C(=O)Nc2ccccc2N)cc1`: the relative growth is inactive: 0.997.

With `COc1ccccc1S(=O)(=O)N[C@@H]1C=C[C@H](CC(=O)N2CCN(C)CC2)O[C@@H]1CO`, the relative growth was inactive: 1.

On to `C[C@@H]1CN([C@@H](C)CO)C(=O)c2cc(NS(=O)(=O)c3cccs3)ccc2O[C@@H]1CN(C)S(=O)(=O)c1ccc(F)cc1`, for which the relative growth was inactive: 0.997.

Take `Cc1ccc(Cl)c(Nc2ccccc2C(=O)[O-])c1Cl.[Na+]`: the relative growth was inactive: 0.954.

On to `N=C(N)NCCCCN.O=S(=O)(O)O`, for which the relative growth is inactive: 1.02.

`CCc1c(c/2[nH]c1/C=C/1\N=C(/C(=C/3\N=C(/C=C/4\N/C(=C2)C(=C4C)C=C)[C@@H](C)[C@@H]3CCC(=O)O)CC(=O)N[C@@H](CC(=O)O)C(=O)O)C(=C1C)C(=O)O)C`: the relative growth was inactive: 1.

As to `C=CC1=C(C)C2=NC/1=C\C1=NC(=C\C3=NC(=C\C4=NC(=C\2)/C(C)=C4CCC(=O)O)/C(CCC(=O)O)=C3C)/C(C=C)=C1C`, the relative growth is inactive: 0.973.
